Consider 84 variants from the RNAGym collection of RNA variant scans (doi:10.1073/pnas.2313332121).

B1: TPR 5TU (parent)
chain: GGAUCUUCUCGAUCUAACAAAAAAGACAAAUCUGCCACAAAGCUUGAGAGCAUCUUCGGAUGCAGAGGCGGCAGCCUUCGGUGGCGCGAUAGCGCCAACGUUCUCAACUAUGACACGCAAAACGCGUGCUCCGUUGAAUGGAGUUUAUCAUG

Variants at the background level are over-represented here. Bounds are passed on as bounds.

In this data set the parent is B1. As to the kind of experiment: polymerase ribozyme fitness, log enrichment relative to wild type (log ratio); higher = more active; in vitro selection for triplet polymerase activity. The method, boiled down:
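The heterodimeric triplet polymerase ribozyme's subunits were each mutagenized into PCR-built libraries and transcribed. Every library was selected once, in triplicate, by annealing with a biotinylated primer, the partner subunit and triplets, incubating frozen at −7 °C, gel-excising extended constructs, capturing on streptavidin beads and running RT-PCR. Input and output libraries were Illumina-sequenced, with genotypes kept only at ≥10 input reads and ≥1 read per output. Fitness, from inverse-variance-weighted replicate averages, is the base-2 logarithm of genotype enrichment over wild-type enrichment.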
With C69U G71U G80C U82G C93G G117A, the “polymerase ribozyme fitness (log ratio)” value was not above -4.2. For the variant G68U G88C G112C G140C U151A, the “polymerase ribozyme fitness (log ratio)” value is not above -4.2. A73U C85U: the “polymerase ribozyme fitness (log ratio)” value is -0.649.

For C69G A121U, the “polymerase ribozyme fitness (log ratio)” value is -2.04. The figure for A73C G86C U104C is not above -4.2; for C69A A119U it is -2.7. On to C72U G143C, for which the “polymerase ribozyme fitness (log ratio)” value was -3.23. Turning to C69U C76G U130A, the “polymerase ribozyme fitness (log ratio)” value is not above -4.2. Take C69A C96A C99G: the “polymerase ribozyme fitness (log ratio)” value is not above -4.2. On to A73U A97G A98U C105G A106U, for which the “polymerase ribozyme fitness (log ratio)” value was not above -4.2. With A73G C85U G133U, the “polymerase ribozyme fitness (log ratio)” value was not above -4.2.

On to G71C C87G A91C C114G C129G G152U, for which the “polymerase ribozyme fitness (log ratio)” value is not above -4.2.

In the case of G70A G81A A122U, the “polymerase ribozyme fitness (log ratio)” value was not above -4.2. The figure for G71U A91U A122G G143U U145C is not above -4.2; for G68U C99U G117C G143A it is not above -4.2; for G70U G136A it is -1.86. In the case of G71C U77A U90C C103A U104G C131G, the “polymerase ribozyme fitness (log ratio)” value was not above -4.2.

Regarding G68U G71U G141C, the “polymerase ribozyme fitness (log ratio)” value was not above -4.2. In the case of G71U G86U C125A A138G, the “polymerase ribozyme fitness (log ratio)” value was -3.99.

Turning to C69A A73C U144A, the “polymerase ribozyme fitness (log ratio)” value was not above -4.2.

G71C C79A C114A: the “polymerase ribozyme fitness (log ratio)” value is not above -4.2.

On to C72U G126U, for which the “polymerase ribozyme fitness (log ratio)” value was -0.101. The figure for G70A G86C is not above -4.2; for C72U C87G it is not above -4.2; for C72U A89C U102G U130G it is not above -4.2. As to C72U G84U A98C G140U, the “polymerase ribozyme fitness (log ratio)” value was not above -4.2.

Regarding G70C G83A A122C A150U, the “polymerase ribozyme fitness (log ratio)” value was not above -4.2.

With A73G G80C, the “polymerase ribozyme fitness (log ratio)” value was not above -4.2. The figure for G71U G80C C95U U127A is -3.97; for A73G G141A it is -0.252; for G71C C79U G83A C95A C99A it is not above -4.2.

For the variant G70A G88C U146A, the “polymerase ribozyme fitness (log ratio)” value was not above -4.2. Turning to A73G U101C, the “polymerase ribozyme fitness (log ratio)” value is 0.659. C72G U82G A89U A113U: the “polymerase ribozyme fitness (log ratio)” value was not above -4.2. The figure for A73G G92C G136C U145G is not above -4.2. With G71A C95U C132U, the “polymerase ribozyme fitness (log ratio)” value was -4.11. For the variant A73G C87U C125G G140U, the “polymerase ribozyme fitness (log ratio)” value was not above -4.2. As to C69G G71A A91U C125G, the “polymerase ribozyme fitness (log ratio)” value is not above -4.2. Consider G68U G92C, for which the “polymerase ribozyme fitness (log ratio)” value was not above -4.2. Regarding C69U A73C C79U G80C C87G A89U G141A, the “polymerase ribozyme fitness (log ratio)” value is not above -4.2. Turning to G70A C85A G88A G100A C125A U139C, the “polymerase ribozyme fitness (log ratio)” value was not above -4.2. Turning to G68U U109G G124C, the “polymerase ribozyme fitness (log ratio)” value was not above -4.2.

Turning to C69A G84A, the “polymerase ribozyme fitness (log ratio)” value was -2.31. Consider C69G A89U, for which the “polymerase ribozyme fitness (log ratio)” value is -1.45. Take G71A U135C: the “polymerase ribozyme fitness (log ratio)” value was not above -4.2. Take A73C G92C C108U: the “polymerase ribozyme fitness (log ratio)” value was not above -4.2. As to A73C A142C, the “polymerase ribozyme fitness (log ratio)” value is not above -4.2.

On to A73C A142U, for which the “polymerase ribozyme fitness (log ratio)” value is not above -4.2.

Regarding C69G C75U G88U, the “polymerase ribozyme fitness (log ratio)” value is not above -4.2. The figure for C69A C93G C103A U130A is not above -4.2. Take C69U G86U C114U G141U: the “polymerase ribozyme fitness (log ratio)” value is not above -4.2. Consider C69G C96U C103A, for which the “polymerase ribozyme fitness (log ratio)” value was -3.44. Take C69U C116U U135A G136U: the “polymerase ribozyme fitness (log ratio)” value was -4.18. Take G71A C85G A150C: the “polymerase ribozyme fitness (log ratio)” value is not above -4.2.

In the case of C69U C87A, the “polymerase ribozyme fitness (log ratio)” value was not above -4.2.

A73U A97G U130G: the “polymerase ribozyme fitness (log ratio)” value is not above -4.2. In the case of C69U A89G C103G, the “polymerase ribozyme fitness (log ratio)” value is not above -4.2. The figure for C72A A91U U145A is not above -4.2; for G70A A73G C79U G88C G133C A137C it is not above -4.2; for G70A G94A U135C A150C it is not above -4.2. Regarding C69G G83C, the “polymerase ribozyme fitness (log ratio)” value was -4.05. Consider A73G C85U A98G C108U U139G, for which the “polymerase ribozyme fitness (log ratio)” value is not above -4.2. Regarding C69G C79G U90A U102G, the “polymerase ribozyme fitness (log ratio)” value is not above -4.2.

For G68U C99U G124C, the “polymerase ribozyme fitness (log ratio)” value was not above -4.2. Consider G70C G81C C95U C114G U134G, for which the “polymerase ribozyme fitness (log ratio)” value is not above -4.2.

On to C72A U134A, for which the “polymerase ribozyme fitness (log ratio)” value was not above -4.2.

Turning to C72G G86U G140A, the “polymerase ribozyme fitness (log ratio)” value is not above -4.2. As for G71A C96U G143A, the “polymerase ribozyme fitness (log ratio)” value is not above -4.2. For G68U U134G, the “polymerase ribozyme fitness (log ratio)” value is not above -4.2. Take C69G A119U: the “polymerase ribozyme fitness (log ratio)” value was -1.72. As to G68U G80C U101G A115G C132U U144C, the “polymerase ribozyme fitness (log ratio)” value is not above -4.2. With G70A G80U C125A G140C, the “polymerase ribozyme fitness (log ratio)” value is not above -4.2.

As to A73C G94U A107U A119G A121U A122U, the “polymerase ribozyme fitness (log ratio)” value is not above -4.2. Turning to G71C C116U, the “polymerase ribozyme fitness (log ratio)” value was -2.51.

Take G70C A115G: the “polymerase ribozyme fitness (log ratio)” value was not above -4.2. For A73G A91U, the “polymerase ribozyme fitness (log ratio)” value is not above -4.2. The figure for C72G A147U is -3.16; for C72A G83A C93U it is not above -4.2; for G70A C85U A113U G117A G141A U145A A150C G152A it is not above -4.2. The figure for C72A C103G G124A is not above -4.2; for G71U G84A A106U C118A G152A it is not above -4.2; for G68U G92C G143U it is not above -4.2. The figure for G71A G136U is not above -4.2; for G70A C93A C103G it is not above -4.2.
